Reference: PubChem BioAssay AID463173 (ICCB-Longwood Screening Facility, Harvard Medical School, 2010)
Hit rate of the full screen: of about 52,000 compounds, about 4,300 (8.3%) were called active. Rule as the data show it: active = survival mostly below about 52% (no sharp cut-off); inactive = mostly above about 56%. The list shows a part of the results.

These molecules were tested on DeltatarO mutant (assay: growth inhibition of S. aureus wild type versus tarO mutant, primary screen, teichoic acid synthesis inhibitors, RN4220, OD600 (AID 463173)). Conditions: OD600, 18 h, hits give low values, screened at 18.75 µg/mL (by protocol).

| SMILES | survival |
| --- | --- |
| COc1ccc(C2(Nc3cccc(C(=O)O)c3C)C(=O)c3ccccc3C2=O)cc1 | inactive: 80% |
| O=C(/C=C\c1ccc2c(c1)OCO2)NC1CC(=O)N(c2ccc(Cl)cc2)C1 (centres undefined) | inactive: 84% |
| Cc1ccc(NC(=O)C2CCN(S(=O)(=O)c3c(C)noc3C)CC2)c(C)c1 | inactive: 109% |
| COc1ccc(-c2csc3nc(-c4ccccc4C)oc(=O)c23)cc1OC | inactive: 59% |
| CC(=O)N1CCOc2cc(S(=O)(=O)NCc3ccc(C)cc3)c(Cl)cc21 | inactive: 76% |
| O=C(O)CSC1=NCCN1 | inactive: 79% |
| FC(c1nc2ccccc2[nH]1)C(F)(F)F (centres undefined) | inactive: 78% |
| CCOc1ccccc1NC(=O)CSc1nc(=O)[nH]c2c1CCCC2 | inactive: 66% |
| O=C(CS(=O)(=O)c1cccc2nsnc12)Nc1ccccc1 | inactive: 80% |
| COc1ccccc1CNC(=O)CN1C(=O)COc2ccc(S(=O)(=O)Nc3ccccc3)cc21 | inactive: 118% |
| CSCCC(NS(=O)(=O)c1ccc2c(c1)oc(=O)n2C)C(=O)N1CCN(c2cc(C)ccc2C)CC1 (centres undefined) | inactive: 57% |
| COc1ccc(C2CC(=O)NC(NC(=O)c3ccc(Br)cc3)=N2)c(OC)c1OC (centres undefined) | inactive: 86% |
| CC(C)(C)c1ccc(C(=O)NCCc2csc3nc(-c4ccccc4F)nn23)cc1 | inactive: 84% |
| COc1cccc(C(=O)Nc2ccc3nc(SCC(=O)N4CCOCC4)sc3c2)c1 | inactive: 65% |
| Cn1c(=O)n(C)c2cc(NS(=O)(=O)c3ccc(F)cc3)ccc21 | inactive: 87% |
| Cc1cc(C)n2c(Nc3ccc(Cl)cc3)c(-c3ccsc3)nc2n1 | inactive: 116% |
| CCCCS(=O)(=O)c1oc(-c2cccs2)nc1S(=O)(=O)c1ccccc1 | active: -5% |
| Cc1ccc2c(CN3CCN(C(=O)c4ccc(F)cc4)CC3)cc(=O)oc2c1 | active: 33% |
| CNc1nnc(-c2ccccc2)s1 | inactive: 74% |
| Cc1ccc(OCC(=O)N(c2ccc(C)cc2)S(=O)(=O)c2ccc(Cl)cc2)cc1 | inactive: 78% |
| Cc1cccc(C)c1NC(=O)Cn1c(=O)n(Cc2ccccc2)c(=O)c2c(C)c(C(=O)N(C)C)sc21 | inactive: 94% |
| COc1ccc(Cl)cc1NS(=O)(=O)c1ccc2[nH]c3c(c2c1)CCCC3 | inactive: 79% |
| Cc1ccc(-c2nc3sc(CCNS(=O)(=O)c4cc(F)ccc4F)c(C)n3n2)cc1 | active: -2% |

| SMILES | survival |
| --- | --- |
| Cc1ccc(Cl)cc1-n1c(=O)cc(N2CCN(c3ccc(F)cc3)CC2)[nH]c1=O | inactive: 70% |
| Cc1cc(C)c2oc(C(=O)Nc3ccc(S(=O)(=O)N4CCCCC4)cc3)cc(=O)c2c1 | active: 45% |
| COc1ccc(OC)c(NC(=O)Cn2cnc3ccc(S(=O)(=O)N4CCC(C)CC4)cc3c2=O)c1 | inactive: 59% |
| O=C(Nc1cc(-c2nc3ccccc3s2)ccc1Cl)c1cc2ccccc2o1 | inactive: 105% |
| CN(Cc1ccccc1)C(=O)c1ccc2c(c1)N(Cc1ccccc1F)C(=O)c1ccccc1S2(=O)=O | inactive: 81% |
| O=S(=O)(Nc1ccccc1C(F)(F)F)c1ccc(N2CCCCS2(=O)=O)cc1 | inactive: 116% |
| CN(C(=O)CSc1nc2ccc(NC(=O)COc3ccc(Cl)cc3)cc2s1)c1ccccc1 | inactive: 72% |
| CCCOc1cccc(NC(=O)c2c(-c3ccccc3Cl)noc2C)c1 | active: 37% |
| O=C(Nc1cc2c(s1)CCCC2)c1ccccc1 | active: 46% |
| CCOC(=O)c1cc(S(=O)(=O)Nc2ccc(C)cc2Cl)[nH]n1 | inactive: 54% |
| COc1cccc(NC(=O)C2CCC(CNS(=O)(=O)c3ccc4c(c3)CC(C)N4C(C)=O)CC2)c1 (centres undefined) | inactive: 85% |
| COc1ccc(CNC(=O)CSc2nc3ccccc3nc2Cc2ccccc2)cc1 | inactive: 73% |
| O=C(CSc1nccn1Cc1ccco1)Nc1ccc(F)cc1 | inactive: 72% |
| COc1ccc(Cn2c(CCC(=O)NCc3cccc(Cl)c3)nc3cccnc32)cc1 | inactive: 129% |
| CCOC(=O)c1[nH]c(C)c(CCC(=O)NCc2ccc(N(C)C)cc2)c1C | inactive: 86% |
| COc1ccc(S(=O)(=O)NCCc2cc3ccc(C)c(C)c3[nH]c2=O)cc1 | inactive: 109% |
| COc1cccc(/C=C/c2nc(C#N)c(NCCN(C)C)o2)c1 | inactive: 105% |
| Cn1c(=O)c2c(-c3ccc(Cl)cc3)n(Cc3ccccc3)cc2n(C)c1=O | active: 40% |
| COc1cc(CN(C(=O)COc2ccc(C)cc2)c2ccccn2)cc(OC)c1OC | inactive: 86% |
| CC(=O)Nc1ccc(-c2cc(C(=O)O)c3c(-c4ccccc4)[nH]nc3n2)cc1 | inactive: 56% |
| COc1ccc(C(=O)N2CCN(Cc3cc(=O)n4nc(-c5ccccc5C)sc4n3)CC2)cc1OC | inactive: 123% |
| COc1ccc(C)cc1NC(=O)c1ccc2c(SCC(=O)O)c3c(nc2c1)CCCC3 | inactive: 77% |
| COc1ccc(NC(=O)c2sc3nc[nH]c(=O)c3c2C)cc1Cl | inactive: 99% |

| SMILES | survival |
| --- | --- |
| Cn1c(=O)n(-c2ccc3c(c2)OCO3)c2nc(-c3ccccc3)nc(C(N)=O)c21 | inactive: 68% |
| CCOC(=O)CC(NC(=O)Cn1nnc(-c2ccc(C(F)(F)F)cc2)n1)c1ccc(OC)cc1 (centres undefined) | inactive: 104% |
| COc1cccc2c1cc1c(=O)n(CC(=O)N3CCN(c4cccc(C)c4)C(C)C3)nc(C)n12 (centres undefined) | inactive: 116% |
| Cc1cc(C)cc(NC(=O)CSc2cc(C)[nH]c(=O)n2)c1 | inactive: 90% |
| CCCC1=Nc2cc(C(=O)NC3CCCC3)ccc2Sc2ccc(C)cc21 | active: 46% |
| CCCn1c(=O)sc2cc(NC(=O)COc3ccc(Cl)cc3)ccc21 | inactive: 55% |
| CC1CCC(NC(=O)c2ccc3c(c2)N(Cc2cccc(Cl)c2)C(=O)c2ccccc2S3(=O)=O)CC1 (centres undefined) | inactive: 74% |
| CCc1ccccc1NC(=O)Cn1nnc(C(=O)NCc2ccccc2Cl)c1N | active: 20% |
| CCN(CC)CC(C)CNC(=O)c1cc(-c2ccc(Br)s2)nc2ccccc12 (centres undefined) | active: 31% |
| COc1cccc(CN(C(=O)c2oc3cc(C)ccc3c2C)C2CCS(=O)(=O)C2)c1 (centres undefined) | inactive: 57% |
| CN(C)S(=O)(=O)c1ccc2c(c1)C(=C(C#N)C#N)c1cc(S(=O)(=O)N(C)C)ccc1-2 | inactive: 113% |
| CCOC(=O)c1ccc(NS(=O)(=O)c2ccc3c(c2)n(C)c(=O)n3C)cc1 | inactive: 96% |
| CCCCNC(=O)c1nn(-c2ccc(CC)cc2)nc1CO | active: 41% |
| CC(NC(=O)c1ccccc1NC(=O)c1ccccc1)C(=O)NCc1ccco1 (centres undefined) | inactive: 76% |
| Cc1nnc(NC(=O)CSCc2cc(=O)c3cc(Cl)ccc3[nH]2)s1 | inactive: 89% |
| O=S(=O)(NCc1ccc(F)cc1)c1ccc(-c2cnc(C3CC3)o2)cc1 | inactive: 95% |
| Cc1ccc(C(=O)c2cn(CC(=O)NC3CCCCC3)c3nc(C)ccc3c2=O)cc1 | inactive: 93% |
| O=C(O)CC(C(=O)O)c1cn(Cc2ccccc2)c2ccccc12 (centres undefined) | inactive: 83% |
| COc1cccc(C(=O)Nc2ccccc2C(=O)OCc2cc(=O)n3nc(C4CC4)sc3n2)c1 | inactive: 65% |
| Cc1c(C(=O)N2CCCC2)oc2c1-c1nn(CC(=O)NCCCOC(C)C)cc1CC2 | inactive: 82% |
| CCOC(=O)C1CCN(C(=O)c2ccccc2N(C)S(C)(=O)=O)CC1 | inactive: 107% |
| COc1ccc(-c2nc3c4ccccc4n(CC(=O)N4CCN(c5ccccc5OC)CC4)c(=O)n3n2)cc1 | inactive: 87% |
| CCN(CC)CCCNC(=O)CN1C(=O)CCn2nc(-c3cn(C)c4ccccc34)cc21 | inactive: 87% |

| SMILES | survival |
| --- | --- |
| COc1ccc(CCNC(=O)c2ccc3c(c2)c(C)c(C)n3Cc2ccc(F)cc2)c(OC)c1OC | inactive: 77% |
| COc1ccc(-c2nc(CSCC(=O)N3CCN(c4cccc(C)c4C)CC3)c(C)o2)cc1OC | inactive: 49% |
| COc1cccc(-n2c(=O)c3c4c(sc3n(Cc3ccc(C)cc3)c2=O)CCCC4)c1 | inactive: 65% |
| Cc1ccccc1-c1nc(SCC(=O)NCc2ccco2)c2c(=O)n(C)c(=O)n(C)c2n1 | inactive: 71% |
| COc1ccc2oc(=O)c(-c3csc(-c4ccc(Br)cc4)n3)cc2c1 | inactive: 78% |
| COc1cccc(-n2cc(C(=O)NCCc3ccc(C)cc3)c3ccccc3c2=O)c1 | inactive: 61% |
| O=C(NC1CC(=O)N(c2cccc(F)c2)C1)C1CCCC1 (centres undefined) | inactive: 93% |
| Cc1c(C)c2c(cc(C)c3c(-c4ccccc4)coc32)oc1=O | inactive: 62% |
| COc1ccccc1-n1ncc2c(=O)[nH]c(SCC(=O)Nc3ccc(Cl)cc3)nc21 | inactive: 95% |
| Cc1ccc(CNC(=O)c2cccn2-c2nnc(N3CCCCC3)s2)cc1 | inactive: 106% |
| COc1cc(-c2nc(Cn3nnc(C(=O)Nc4ccccc4)c3C)c(C)o2)cc(OC)c1OC | inactive: 42% |
| O=C(c1cccn1-c1nnc(N2CCCC2)s1)N1CCN(c2ccccc2)CC1 | active: 25% |
| CN(C)CCN(Cc1ccccc1)S(=O)(=O)c1ccc2[nH]c(=O)ccc2c1 | inactive: 95% |
| O=C(Cn1cnc2c(oc3ccccc32)c1=O)Nc1ccc(F)cc1F | inactive: 105% |
| O=C(CSc1nc2c(oc3ccccc32)c(=O)n1Cc1ccco1)Nc1ccccc1Cl | inactive: 58% |
| CCCCN(C)S(=O)(=O)c1ccc(C(=O)Nc2sc3c(c2C(N)=O)CC(C)(C)NC3(C)C)cc1 | inactive: 78% |
| Cc1ccc(NC(=O)C2CC(=O)n3cnnc3N2)cc1Cl (centres undefined) | inactive: 83% |
| CCCc1ccc(-c2ccc(C(=O)Oc3ccc(OCC)cc3)cc2)nc1 | inactive: 78% |
| Cc1ccc(CCNC(=O)CS(=O)Cc2nc(-c3ccccc3C)oc2C)cc1 (centres undefined) | inactive: 69% |
| CCN(Cc1ccccc1)C(=O)Cn1c(=O)n(-c2ccc(Cl)cc2)c(=O)c2c(C)c(C(=O)N(C)C)sc21 | inactive: 98% |
